Data published in PubChem BioAssay (NCI).
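Test compounds were applied to cells in 96-well plates for 48 hours at 5 doses. GI50 is the concentration that inhibits growth by half.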 The source holds more than one record for some entries. They are shown here; other results are not. The source may hold further records. For some assays here: The tests behind the records often covered other concentration ranges, not given here; some values may only mark the edge of a range.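 TGI denotes the concentration required for complete inhibition of growth.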 For some assays here: The values listed for one entry repeat one measurement in other runs, samples, wells, individuals or studies. Brackets tell where a record comes from. A, B and so on number the origins entry by entry.

Legend:
Assay in all cases: NCI-60 cell line screen, 48 h
[1] = tested on: HL-60(TB) leukemia
[2] = tested on: HOP-92 NSCLC
[3] = tested on: 786-0 renal
[4] = tested on: HS 578T breast
[5] = tested on: UO-31 renal
[6] = tested on: A498 renal
[7] = tested on: A549 NSCLC
[8] = tested on: ACHN renal
[9] = tested on: BT-549 breast
[10] = tested on: CAKI-1 renal
[11] = tested on: CCRF-CEM leukemia
[12] = tested on: COLO 205 colon
[13] = tested on: DU-145 prostate
[14] = tested on: EKVX NSCLC
[15] = tested on: HCC-2998 colon
[16] = tested on: HCT-116 colon
[17] = tested on: HCT-15 colon
[18] = tested on: HOP-62 NSCLC
[19] = tested on: IGROV1 ovarian
[20] = tested on: K-562 leukemia
[21] = tested on: KM12 colon
[22] = tested on: LOX IMVI melanoma
[23] = tested on: M14 melanoma
[24] = tested on: MALME-3M melanoma
[25] = tested on: MCF7 breast
[26] = tested on: MDA-MB-231 breast
[27] = tested on: MDA-MB-435
[28] = tested on: MOLT-4 leukemia
[29] = tested on: NCI-H226 lung
[30] = tested on: NCI-H23 lung
[31] = tested on: NCI-H460 lung
[32] = tested on: NCI-H522 lung
[33] = tested on: NCI/ADR-RES ovarian
[34] = tested on: OVCAR-3 ovarian
[35] = tested on: OVCAR-4 ovarian
[36] = tested on: OVCAR-5 ovarian
[37] = tested on: OVCAR-8 ovarian
[38] = tested on: PC-3 prostate
[39] = tested on: RPMI-8226 leukemia
[40] = tested on: RXF 393 renal
[41] = tested on: SF-268 CNS
[42] = tested on: SF-295 CNS
[43] = tested on: SF-539 CNS
[44] = tested on: SK-MEL-2 melanoma
[45] = tested on: SK-MEL-28 melanoma
[46] = tested on: SK-MEL-5 melanoma
[47] = tested on: SK-OV-3 ovarian
[48] = tested on: SN12C renal
[49] = tested on: SNB-19 CNS
[50] = tested on: SR leukemia
[51] = tested on: SW-620 colon
[52] = tested on: T-47D breast
[53] = tested on: TK-10 renal
[54] = tested on: U251 CNS
[55] = tested on: UACC-62 melanoma
[56] = tested on: SNB-75 CNS

For `COc1cc(C2c3cc4c(cc3[C@@H](Nc3ccc([N+](=O)[O-])cc3)C3COC(=O)[C@H]23)OCO4)cc(OC)c1O` (stereo not given in full), the TGI [1] was 233 nM and 2.61 µM and the TGI [2] was 872 nM and 18.2 µM.

For `CC(C)c1[nH]nc2c(NCc3ccc(-c4ccccn4)cc3)nc(SCCN)nc12`, the TGI [3] was 1.03 µM and 11.2 µM, the TGI [2] was 95 nM and 10.1 µM and the TGI [4] was 2.62 µM and 52.2 nM. The TGI [5] was 503 nM and 8.69 µM.

`CC[C@]1(O)C[C@H]2CN(CCc3c([nH]c4ccccc34)[C@@](C(=O)OC)(c3cc4c(cc3OC)N(C)[C@H]3[C@@](O)(C(=O)OC)[C@H](OC(C)=O)[C@]5(CC)C=CCN6CC[C@]43[C@@H]65)C2)C1` was tested, and the TGI [3] was 15.5 nM, 2.14 µM, 2.5 µM, 12.9 µM, the TGI [6] was 2.02 nM and 127 nM and the TGI [7] was 15 nM, 2.15 µM, 2.5 µM, 16.8 µM. The TGI [8] was 15.6 nM, 2.23 µM, 23.3 µM, the TGI [9] was 25 nM, 2.5 µM, 22 µM and the TGI [10] was 25 nM, 1.14 µM, 2.5 µM. For the same compound, the TGI [11] was 3.77 nM, 934 nM, 110 nM, 5.25 µM, the TGI [12] was 0.0418 nM, 4.86 nM, 26.2 nM and the TGI [13] was 0.328 nM, 81 nM, 10.7 nM. For the same compound, the TGI [14] was 2.98 nM, 1.68 µM, 2.5 µM, 46.8 µM, the TGI [15] was 1.16 nM and 40.9 nM and the TGI [16] was 1.71 nM, 221 nM, 223 nM, 11.1 µM. For the same compound, the TGI [17] was 17.6 nM, 1.13 µM, 147 nM, 11.2 µM, the TGI [1] was 0.0198 nM and 9.69 nM and the TGI [18] was 25 nM, 1.02 µM, 2.5 µM, 13.8 µM. For the same compound, the TGI [2] was 10.2 nM, 386 nM, 2.5 µM, 11.2 µM, the GI50 [4] was 4.88 nM [1 test] and 0.25 nM [mean of 10 tests] and the TGI [19] was 15.7 nM, 1.93 µM, 2.5 µM, 12.1 µM. The TGI [20] was 1.2 nM, 1.18 µM, 118 nM, 10.2 µM, the TGI [21] was 0.284 nM, 145 nM, 23.3 nM and the TGI [22] was 0.499 nM, 1.72 µM, 2.5 µM, 10.3 µM. The TGI [23] was 16.5 nM, 296 nM, 2.5 µM, 61.5 nM, the TGI [24] was 25 nM, 1.58 µM, 2.5 µM, 13.3 µM and the TGI [25] was 0.901 nM, 1.64 µM, 2.03 µM, 52.9 µM. For the same compound, the TGI [26] was 2.29 nM, 108 nM, 62.8 nM, the TGI [27] was 0.00279 nM and 0.44 nM and the TGI [28] was 4.49 nM, 1.39 µM, 110 nM, 29.8 µM. The TGI [29] was 0.738 nM, 23.6 nM, 2.5 µM, the TGI [30] was 1.88 nM, 85.7 nM, 2.5 µM and the TGI [31] was 4.81 nM, 318 nM, 725 nM. The TGI [32] was 0.00779 nM and 0.922 nM, the TGI [33] was 13.5, 977, 860, 443 nM and the TGI [34] was 0.037 nM, 3.55 nM, 110 nM. The TGI [35] was 25 nM, 2.24 µM, 2.5 µM, 20.7 µM, the TGI [36] was 26.7 µM [mean of 2 tests] and 25 nM [mean of 3 tests] and 2.28 µM [mean of 83 tests] and the TGI [37] was 2.31 nM, 446 nM, 2.5 µM, 15.2 nM. For the same compound, the TGI [38] was 0.822 nM, 128 nM, 2.5 µM, the TGI [39] was 5.24 nM, 1.49 µM, 110 nM, 10.8 µM and the TGI [40] was 22.4 µM [1 test] and 89.5 nM [mean of 33 tests]. For the same compound, the TGI [41] was 14.5 nM, 1.59 µM, 1.88 µM, 6.64 µM, the TGI [42] was 0.0466 nM, 11.5 nM, 5.4 nM, 13 µM and the TGI [43] was 0.0257 nM and 2.16 nM. The TGI [44] was 25 nM, 79.9 nM, 2.5 µM, the TGI [45] was 7.65 nM and 2.17 µM and the TGI [46] was 0.0452, 40.4, 110, 20.3 nM. The TGI [47] was 0.122 nM and 537 nM, the TGI [48] was 25 nM, 2.13 µM, 2.5 µM, 14.8 µM and the TGI [49] was 25 nM, 1.03 µM, 12.6 µM. The TGI [50] was 6.72 nM, 293 nM, 12.1 µM, the TGI [51] was 25 nM, 2.37 µM, 110 nM, 17.2 µM and the GI50 [52] was < 0.0025 nM [1 test] and 19.1 µM [mean of 2 tests] and 2.24 µM [mean of 8 tests]. The TGI [52] was 25 nM [1 test] and 43.8 µM [mean of 2 tests] and 2.5 µM [mean of 8 tests], the GI50 [53] was 0.25 nM [mean of 2 tests] and 69.1 nM [mean of 59 tests] and the TGI [53] was 19.9 nM [mean of 2 tests] and 2.49 µM [mean of 59 tests]. For the same compound, the TGI [54] was 0.133 nM, 106 nM, 110 nM, the TGI [55] was 0.0873 nM, 1.36 µM, 2.5 µM and the TGI [5] was 25 nM, 2.18 µM, 2.5 µM, 18.7 µM.

With `Oc1ccc(Cl)cc1Sc1cc(Cl)ccc1O` the TGI [39] was 7.87 µM [sample A] and > 100 µM [sample B].

With `COc1ccc(/C=C\c2cc(OC)c(OC)c(OC)c2)cc1OC(=O)CC(N)C(=O)O` (stereo not given) the TGI [3] was 1.77 nM and 21.6 nM, the TGI [11] was 7.38 nM and > 100 µM and the TGI [16] was 1.46 nM and 62.8 nM. For the same compound, the TGI [17] was 2.67 nM and 78.7 nM, the TGI [1] was 0.388 nM, 23.7 nM, > 100 µM and the TGI [21] was 3.86 nM and 128 nM. For the same compound, the TGI [22] was 1.43 nM and > 100 µM, the TGI [23] was 177 nM and > 100 µM and the TGI [31] was 6.28 nM, 24.6 nM, 16.8 µM. For the same compound, the TGI [37] was 6.6 nM, 67.7 nM, > 100 µM, the TGI [40] was 42.3 nM and 8.58 µM and the TGI [47] was 144 nM and > 100 µM. The TGI [49] was 885 nM and > 100 µM, the TGI [56] was 5.05 nM, 769 nM, > 100 µM and the GI50 [50] was 0.179 nM and > 100 µM. The TGI [50] was 0.855 nM and > 100 µM.
